Measured values published in PubChem BioAssay AID686979 (National Center for Advancing Translational Sciences (NCATS), 2013).
The campaign covered roughly 420,000 compounds. About 50,000 (12%) were called active. This list was built around the results that the source calls inconclusive (neither active nor inactive); the mix of calls is not that of the screen. The call rests on the fitted dose curve; in most records, active means well fitted inhibition curve with a large enough effect; inconclusive means small, poorly fitted or top-dose-only effect; inactive means flat fitted curve, though single readings scatter. Potencies of inconclusive entries are left out as doubtful fits.

assay: qHTS for Inhibitors of human tyrosyl-DNA phosphodiesterase 1 (TDP1): qHTS in cells in presence of CPT; settings: chicken DT40 Tdp1-/-;hTDP1 cells + 20 nM CPT, ATP luminescence, 48 h; activity change, negative = growth inhibition: at 46.2 µM (top of the series); further: nearly all actives have a fitted effect of over 55% in size
Outline: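 Cell growth measured by CellTiter-Glo luminescence after a minimum 48 h, 37 C compound exposure with 20 nM CPT in Tdp1-knockout DT40 cells stably expressing hTDP1, seeded 400/well; qHTS titration format.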
On the % scale 0 is the no-effect control and ±100 the full control effect; potency means the concentration at half of the fitted maximal effect; tags describe the fitted curve by direction and shape.

SMILES | Potency | activity change, negative = growth inhibition
Cc1ccc(C)c(NC(=S)NNC(=O)c2csc(C)c2)c1 | inconclusive [inhibitor, single point] | –
O=C(CCS(=O)(=O)c1ccccc1)N(Cc1cccnc1)c1nc2ccc(Cl)cc2s1 | active: 5.8 µM | –
CC1(C)CC(=O)C=C(c2ccc(OC(F)(F)F)cc2)C1 | inconclusive [inhibitor, single point] | –
Nc1ccc2ccc(O)cc2c1 | – | inactive: -26.8%
O=C1C=C(Nc2ccc(Cl)cc2)CC(c2ccco2)C1 (stereo unspecified) | inconclusive [inhibitor, partial curve] | –
COC(=O)C1=C(C)N(c2ccc(Cl)c(Cl)c2)C(=O)C1 | active: 5.17 µM | –
Cc1cc(C(C)(C)C)oc1C(=O)OCC(=O)NC1CCCCC1 | inconclusive [inhibitor, single point] | –
CCn1nc(C(=O)Nc2nc(-c3ccccn3)cs2)c2ccccc2c1=O | active: 2.91 µM | –
c1ccc(C2=NNC(=NC3CC3)SC2)cc1 | inconclusive [inhibitor, partial curve] | –
COc1ccc(N2CCN(CCCNC(=O)c3cc(Nc4ccc(OC)cc4OC)nc4ccccc34)CC2)cc1 | active: 23.1 µM | –
COc1ccc(C2(CNC(=O)c3ccc(Br)o3)CCOCC2)cc1 | – | inactive: -28%
CCOc1ccc(Cn2c(SCCCCC#N)nc3c2c(=O)n(C)c(=O)n3C)cc1OCC | – | inconclusive: -33.5% [inhibitor]
Cn1c(=O)c2c(nc(NCCNC(=O)c3ccco3)n2Cc2ccc(Cl)cc2Cl)n(C)c1=O | inconclusive [inhibitor, single point] | –
O=[N+]([O-])c1cccnc1N1CCC(c2cc(-c3ccc(Cl)cc3)n[nH]2)CC1 | active: 20.6 µM | –
N#C/C(=C\c1ccc(-c2ccc(Br)cc2)o1)C(=O)NCCc1c[nH]c2ccccc12 | inconclusive [inhibitor, partial curve] | –
COc1ccccc1CNC(=O)C1CCC(CNc2c(N3CCC(C)CC3)c(=O)c2=O)CC1 (stereo unspecified) | – | inactive: -29.7%
OCCN1CCN(CCOc2cccc(Cl)c2)CC1 | inconclusive [inhibitor, single point] | –
Cc1ccc2[nH]c(=O)c(CN(C)C(=O)c3cccs3)cc2c1 | inconclusive [inhibitor, single point] | –
Cc1ccc(S(=O)(=O)CCC(=O)NNC(=O)CN(C)S(=O)(=O)c2ccc(C)cc2)cc1 | – | inactive: 3.79%
Cc1cc(C(=O)NCc2cccs2)c(C)o1 | active: 25.9 µM | –
COc1ccc2[nH]c3c(C)c4ccncc4c(C)c3c2c1 | active: 0.259 µM | –
